Results published in the supplement of paper PMC11880418.
Counter-ions that a name gives are not always drawn. The list shows a part of the results. The data scatter; read single values as rough. Non-standard residues stand in square brackets, D forms with d. Residues, ends and D or L forms follow the SMILES beside them. *: point of attachment. Sta = CC(C)C[C@H](N)[C@@H](O)CC(=O)O; Isovaleryl = CC(C)CC(=O)*

What was measured:
Assay in all cases: ALDHbr (CSC) cell proportion score relative to DMSO vehicle (ratio to DMSO); breast (SUM159) / gastric (MKN45) / pancreatic (PANC1) / colon cancer lines; ALDHbr cells have high ALDH activity and are rich in cancer stem cells (CSC); higher = more CSC (ALDHbr) cells remaining
Details in all cases: 10 µM; 72 h
[1] = test system: MKN45
[2] = test system: PANC1
[3] = test system: SUM159
[4] = test system: T84
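Note: High-content imaging of ALDEFLUOR-stained cells with Hoechst-labelled nuclei in 384-well plates, triplicate wells, scored as Z-score against 0.1% DMSO vehicle, negative meaning fewer ALDHbr cells.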

Row | Structure (SMILES) | ALDHbr [1] | ALDHbr [2] | ALDHbr [3] | ALDHbr [4]
1 | COc1ccc2c(c1)N(C[C@H](C)CN(C)C)c1ccccc1S2 [Methotrimeprazine maleat salt] | 1.17 | 1.16 | 0.872 | 1.08
2 | CC(C)NCC(O)c1ccc(NS(C)(=O)=O)cc1 (stereo not given) [Sotalol hydrochloride] | 1.02 | 1.01 | 1.18 | 0.836
3 | CC/C(=C(/CC)c1ccc(O)cc1)c1ccc(O)cc1 [Diethylstilbestrol] | 0.981 | 1 | 0.855 | 1.04
4 | C[C@H](O)C(=O)Nc1c(I)c(C(=O)NC(CO)CO)c(I)c(C(=O)NC(CO)CO)c1I [Iopamidol] | 1.11 | 1.06 | 1.23 | 1.24
5 | Cn1c([N+](=O)[O-])cnc1COC(N)=O [Ronidazole] | 1.13 | 1.11 | 1.06 | 0.883
6 | C=C1C[C@H]2[C@@H]3C=C(C)C4=CC(=O)CC[C@]4(C)[C@H]3CC[C@]2(C)[C@@]1(OC(C)=O)C(C)=O [Melengestrol acetate] | 0.595 | 0.572 | 0.684 | 0.794
7 | CO[C@@]1(NC(=O)CSCC#N)C(=O)N2C(C(=O)O)=C(CSc3nnnn3C)CS[C@@H]21 [Cefmetazole sodium salt] | 1.02 | 0.848 | 0.836 | 0.837
8 | CC(C)(C)NCC(O)c1ccc(O)c(CO)c1 (stereo not given) [Salbutamol] | 0.949 | 0.818 | 1.93 | 0.959
9 | Cc1cccc(C)c1NC(=O)CN1CCN(CCCC(c2ccc(F)cc2)c2ccc(F)cc2)CC1 [Lidoflazine] | 0.583 | 0.712 | 0.368 | 0.203
10 | CN1CCC(OC(c2ccccc2)c2ccccc2)CC1 [Diphenylpyraline hydrochloride] | 1.12 | 0.944 | 1.04 | 0.969
11 | C[C@H](Cc1cc2c(c(C(N)=O)c1)N(CCCO)CC2)NCCOc1ccccc1OCC(F)(F)F [Silodosin] | 0.958 | 0.995 | 0.863 | 1
12 | Cc1cnc(C(=O)O)c[n+]1[O-] [Acipimox] | 1 | 0.951 | 0.932 | 0.825
13 | CN(C)CCCSC(=N)N [Dimaprit dihydrochloride] | 0.994 | 0.923 | 0.733 | 0.814
14 | O=C(O)COC(=O)Cc1ccccc1Nc1c(Cl)cccc1Cl [Aceclofenac] | 0.915 | 0.979 | 0.755 | 0.913
15 | CNCCC(Oc1ccc(C(F)(F)F)cc1)c1ccccc1 (stereo not given) [Fluoxetine hydrochloride] | 1.13 | 1.06 | 0.576 | 0.438
16 | Clc1ccccc1CN1CCc2sccc2C1 [Ticlopidine hydrochloride] | 1.04 | 0.887 | 1.01 | 1.06
17 | Cc1c(N(C)C)c(=O)n(-c2ccccc2)n1C [Amidopyrine] | 0.947 | 0.962 | 0.887 | 1.01
18 | CSc1ccc2c(c1)N(CCC1CCCCN1C)c1ccccc1S2 (stereo not given) [Thioridazine hydrochloride] | 1.26 | 0.846 | 1.1 | 0.141
19 | C[C@]12CC[C@@H]3c4ccc(O)cc4C[C@@H](CCCCCCCCC[S+]([O-])CCCC(F)(F)C(F)(F)F)[C@H]3[C@@H]1CC[C@@H]2O (stereo not given in full) [Fulvestrant] | 0.467 | 0.628 | 0.739 | 0.739
20 | CC(C)CC(=O)N[C@H](C(=O)N[C@H](C(=O)N[C@@H](CC(C)C)[C@@H](O)CC(=O)N[C@@H](C)C(=O)N[C@@H](CC(C)C)[C@@H](O)CC(=O)O)C(C)C)C(C)C [Pepstatin A] (Isovaleryl-VV[Sta]A[Sta]-OH) | 1.21 | 0.849 | 0.862 | 1.08
21 | CC(N)C12CC3CC(CC(C3)C1)C2 (stereo not given) [Rimantadine Hydrochloride] | 1.13 | 0.938 | 1.03 | 0.978
22 | C=C[C@H]1CN2CC[C@H]1C[C@@H]2[C@@H](O)c1ccnc2ccc(OC)cc12 [Quinidine hydrochloride monohydrate] | 0.858 | 0.898 | 1.07 | 1.01
23 | Cc1cc(=O)n(-c2ccccc2)n1C [Antipyrine] | 0.861 | 0.851 | 1.32 | 0.715
24 | CCN[C@H]1C[C@H](C)S(=O)(=O)c2sc(S(N)(=O)=O)cc21 [Dorzolamide hydrochloride] | 1.06 | 0.892 | 0.938 | 1.02
25 | CCCC1O[C@@H]2C[C@H]3[C@@H]4CCC5=CC(=O)C=C[C@]5(C)[C@H]4[C@@H](O)C[C@]3(C)[C@]2(C(=O)CO)O1 (stereo not given in full) [Budesonide] | 1.07 | 0.698 | 0.949 | 0.793
26 | CS(=O)(=O)c1ccc([C@@H](O)[C@@H](CO)NC(=O)C(Cl)Cl)cc1 [Thiamphenicol] | 0.553 | 0.599 | 1.22 | 0.799
27 | CN(C)CCOC(c1ccc(Cl)cc1)c1ccccn1 (stereo not given) [Carbinoxamine maleate salt] | 1.2 | 0.837 | 1.17 | 1.19
28 | CC(C)(C)NC[C@H](O)COc1ccccc1C1CCCC1 [Penbutolol sulfate] | 0.931 | 1.11 | 1.16 | 0.757

Row | Structure (SMILES) | ALDHbr [1] | ALDHbr [2] | ALDHbr [3] | ALDHbr [4]
29 | NC(=O)NC1NC(=O)NC1=O (stereo not given) [Allantoin] | 0.945 | 0.858 | 0.991 | 1
30 | O=C(O)c1cc(=O)c2c(OCC(O)COc3cccc4oc(C(=O)O)cc(=O)c34)cccc2o1 [Cromolyn disodium salt] | 0.796 | 1 | 0.945 | 1.1
31 | CCN(CC)CCNC(=O)c1ccc(N)cc1 [Procainamide hydrochloride] | 1.12 | 0.913 | 1.11 | 0.962
32 | Cn1ccnc1S [Methimazole] | 1.08 | 0.899 | 1.12 | 1.25
33 | NS(=O)(=O)c1cc(C(=O)O)cc(N2CCCC2)c1Oc1ccccc1 [Piretanide] | 1.04 | 1.03 | 1.05 | 1.17
34 | CC(C)OC(=O)C(C)(C)Oc1ccc(C(=O)c2ccc(Cl)cc2)cc1 [Fenofibrate] | 0.863 | 0.819 | 0.944 | 1.02
35 | O=C(O)CCc1nc(-c2ccccc2)c(-c2ccccc2)o1 [Oxaprozin] | 0.982 | 1.03 | 0.957 | 0.991
36 | CCCc1nc(C)c2c(=O)nc(-c3cc(S(=O)(=O)N4CCN(CC)CC4)ccc3OCC)[nH]n12 [Vardenafil] | 0.7 | 0.383 | 0.904 | 0.773
37 | Cc1cccc(C)c1OCC(=O)N[C@@H](Cc1ccccc1)[C@@H](O)C[C@H](Cc1ccccc1)NC(=O)[C@H](C(C)C)N1CCCNC1=O [Lopinavir] | 0.526 | 0.628 | 0.474 | 0.491
38 | CC1(C)S[C@@H]2[C@H](NC(=O)[C@H](N)c3ccccc3)C(=O)N2[C@H]1C(=O)O [Ampicillin trihydrate] | 0.953 | 0.845 | 1 | 0.79
39 | CCOC(=O)c1ccc(C#Cc2ccc3c(c2)C(C)(C)CCS3)nc1 [Tazarotene] | 0.808 | 1.3 | 0.0294 | 0.553
40 | Cc1ccc2c(c1)c1c3n2CCNC3CCC1 (stereo not given) [Pirlindole mesylate] | 1.23 | 0.954 | 0.661 | 0.908
41 | CN1[C@@H]2CC[C@H]1C[C@@H](OC(=O)c1c[nH]c3ccccc13)C2 [Tropisetron hydrochloride] | 1.23 | 0.926 | 1.14 | 0.94
42 | CC(c1cc2ccccc2s1)N(O)C(N)=O (stereo not given) [Zileuton] | 0.827 | 0.986 | 0.972 | 1.04
43 | NS(=O)(=O)c1cc(C2(O)NC(=O)c3ccccc32)ccc1Cl (stereo not given) [Chlorthalidone] | 0.987 | 0.947 | 1.09 | 0.981
44 | C[C@@H]1NC(=O)NC1=O [Methylhydantoin-5-(L)] | 0.9 | 0.866 | 0.913 | 0.84
45 | NS(=O)(=O)c1cc2c(cc1Cl)N=CNS2(=O)=O [Chlorothiazide] | 0.838 | 0.758 | 1.05 | 0.941
46 | C[C@@H]1[C@H](O)[C@@H](C)/C=C/C=C/C=C/C=C/C=C/C=C/C=C/[C@H](O[C@@H]2O[C@H](C)[C@@H](O)[C@H](N)[C@@H]2O)C[C@@H]2O[C@](O)(C[C@@H](O)C[C@@H](O)[C@H](O)CC[C@@H](O)C[C@@H](O)CC(=O)O[C@H]1C)C[C@H](O)[C@H]2C(=O)O [Amphotericin B] | 0.925 | 0.674 | 0.28 | 0.578
47 | C[C@H](CCC(=O)O)[C@H]1CC[C@H]2[C@@H]3CC[C@@H]4C[C@H](O)CC[C@]4(C)[C@H]3CC[C@]12C [Lithocholic acid] | 1.31 | 0.961 | 1.31 | 1.14
48 | CC(=O)[C@H]1CC[C@H]2[C@@H]3C[C@H](C)C4=CC(=O)CC[C@]4(C)[C@H]3[C@@H](O)C[C@]12C [Medrysone] | 0.645 | 0.71 | 0.851 | 0.803
49 | CN(C)CCOC(=O)C(c1ccccc1)C1(O)CCCC1 (stereo not given) [Cyclopentolate hydrochloride] | 0.922 | 0.96 | 0.995 | 0.997
50 | CCN1CCCC1CNC(=O)c1cc(S(=O)(=O)CC)c(N)cc1OC (stereo not given) [Amisulpride] | 1.04 | 0.98 | 0.925 | 1.01
51 | COc1ccnc(C[S+]([O-])c2nc3cc(OC(F)F)ccc3[nH]2)c1OC (stereo not given) [Pantoprazole sodium] | 0.958 | 0.827 | 1.06 | 0.958
52 | COc1cc(N)c(Cl)cc1C(=O)NC1CCN(Cc2ccccc2)CC1 [Clebopride maleate] | 1.08 | 0.662 | 1.34 | 0.819
53 | C#C[C@]1(O)CC[C@H]2[C@@H]3CCC4=C(CCC(=O)C4)[C@H]3CC[C@@]21C [Norethynodrel] | 0.653 | 0.596 | 1.27 | 0.706
54 | COc1cc(C(=O)OCCCN2CCCN(CCCOC(=O)c3cc(OC)c(OC)c(OC)c3)CC2)cc(OC)c1OC [Dilazep dihydrochloride] | 1.58 | 0.634 | 0.368 | 0.743
55 | O=C(O)c1cc(-c2ccc(F)cc2F)ccc1O [Diflunisal] | 0.856 | 0.92 | 0.956 | 0.898
